The campaign covered roughly 310,000 compounds. About 14,000 (4.5%) showed an effect of 50% or more. The effect is printed as a negative number. Some of the results follow.
target: human ether-à-go-go-related gene (hERG) potassium channel (human, UniProt Q12809); assay: primary screen, population patch clamp on CHO cells stably expressing hERG
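Also: peak tail current of the secondary pulse compared with the same well before compound.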

human ether-à-go-go-related gene (hERG) potassium channel, sequence (Q12809 whole entry, looked up): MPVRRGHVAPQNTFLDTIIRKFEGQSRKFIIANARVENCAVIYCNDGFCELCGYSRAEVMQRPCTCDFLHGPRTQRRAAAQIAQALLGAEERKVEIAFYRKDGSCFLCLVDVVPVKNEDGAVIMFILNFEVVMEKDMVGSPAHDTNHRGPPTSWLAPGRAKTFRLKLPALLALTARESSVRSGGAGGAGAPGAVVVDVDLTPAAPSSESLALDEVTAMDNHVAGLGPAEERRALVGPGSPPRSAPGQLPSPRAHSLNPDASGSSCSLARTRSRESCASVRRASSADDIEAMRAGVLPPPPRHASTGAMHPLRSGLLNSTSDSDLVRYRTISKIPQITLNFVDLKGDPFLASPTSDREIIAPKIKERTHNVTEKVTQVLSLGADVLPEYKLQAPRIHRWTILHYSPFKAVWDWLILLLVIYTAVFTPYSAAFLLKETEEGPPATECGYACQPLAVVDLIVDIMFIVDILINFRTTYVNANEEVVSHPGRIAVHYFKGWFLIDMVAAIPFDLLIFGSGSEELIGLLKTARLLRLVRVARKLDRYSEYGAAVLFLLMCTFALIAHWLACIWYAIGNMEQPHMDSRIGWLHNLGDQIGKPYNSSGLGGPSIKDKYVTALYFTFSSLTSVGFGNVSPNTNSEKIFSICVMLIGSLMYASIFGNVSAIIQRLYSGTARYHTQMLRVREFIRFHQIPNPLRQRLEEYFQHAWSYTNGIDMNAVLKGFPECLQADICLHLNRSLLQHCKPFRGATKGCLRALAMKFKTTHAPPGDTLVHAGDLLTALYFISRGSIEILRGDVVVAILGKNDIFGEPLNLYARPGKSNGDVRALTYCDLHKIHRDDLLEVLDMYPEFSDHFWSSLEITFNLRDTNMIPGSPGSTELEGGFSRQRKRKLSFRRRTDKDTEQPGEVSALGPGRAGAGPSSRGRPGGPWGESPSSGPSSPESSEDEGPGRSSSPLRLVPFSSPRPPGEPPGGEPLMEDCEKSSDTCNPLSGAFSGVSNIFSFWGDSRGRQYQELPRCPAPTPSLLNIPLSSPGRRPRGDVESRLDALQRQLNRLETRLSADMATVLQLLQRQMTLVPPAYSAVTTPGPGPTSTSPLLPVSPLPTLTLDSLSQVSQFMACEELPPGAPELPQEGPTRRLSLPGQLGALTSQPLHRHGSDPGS

Structure (SMILES)	hERG current change (%, negative = inhibition) at 10uM [%]
O=[N+]([O-])c1cccc(S(=O)(=O)Nc2ccc(-c3ccc(N4CCCC4)nn3)cc2)c1	13.2
FC(F)(F)c1nnc2ccc(NCn3nnc4ccccc43)nn12	-0.567
CC1CC(C)(C)NC(=S)N1CCCC(=O)NCCc1ccc(Cl)cc1 (centres unmarked)	4.25
CCOC(=O)Cn1c(N)c(C(=O)OC)sc1=S	7.28
O=C(NCCN1CCOCC1)c1ccc(=O)n(Cc2ccc(Cl)cc2)c1	10.2
O=C(CC(c1ccccc1)c1ccccc1)N1CCN(c2ccccn2)CC1	-53.4
Cc1nc2ccccn2c1C(=O)N/N=C/c1cc(C)n(-c2ccc(Cl)cc2)c1C	-13
CCCOc1ccc2c(=O)c(N3C(=O)c4ccccc4C3=O)c(C)oc2c1	-41.3
Br.COc1ccc(CNCc2ccc(F)cc2)c(OC)c1	-79
CC(=O)c1ccc(NC(=O)c2noc3c2CCC3)cc1	2.68
CCCCC(=O)Nc1ccc(C(N)=O)cc1	13.8
O=C(NCc1ccco1)c1cc(=O)c2ccccc2o1	10.9
COc1cccc(NC(=O)c2ccccc2N(Cc2ccccc2)S(C)(=O)=O)c1	-22
CC[N+](CC)(CC#Cc1ccccc1)CC#Cc1ccccc1.[Br-]	-69.8
O=C(Nc1ccon1)c1ccc(N2CCCCC2)c([N+](=O)[O-])c1	15.4
COc1ccc(C(=O)N(C)C2CCCCC2)cc1OC1CCN(C(C)C)CC1	-14.9
O=C(NCCO)/C(=C\c1ccco1)NC(=O)c1cccs1	21.1
Cc1ccc(NC(=O)COC(=O)CN2C(=O)COc3ccccc32)cc1	7.52
COc1cc2c(cc1OC)C1(Nc3c-2c(-c2ccccc2)nn3-c2ccccc2)C(=O)Nc2ccccc21 (centres unmarked)	10.2
O=C(NCc1nc2ccccc2[nH]1)C1=C[C@@H](c2ccc(Br)cc2)C[C@@H](OCc2ccc(CO)cc2)O1	-32.4
COc1ccc(C(CC(=O)O)N2Cc3ccccc3C2=O)cc1OC (centres unmarked)	19.8
Oc1ccccc1OCCOc1ccccc1OCCOc1ccccc1O	0.0544
Cc1ccc(NC2CCCN(C(=O)Cc3nonc3C)C2)cc1C (centres unmarked)	14.5

Structure (SMILES)	hERG current change (%, negative = inhibition) at 10uM [%]
COc1ccc(NC(=O)CCNS(=O)(=O)c2cccc3nsnc23)cc1	0.074
CCCCOC(=O)CCCc1ccc([N+](=O)[O-])cc1[N+](=O)[O-]	-52
CN(C)/C=C/C(=O)c1ccc(Cl)cc1Cl	6.47
CCOC(=O)COc1coc(CN2CCN(c3ccccc3)CC2)cc1=O	9.43
CC1CC(=O)C2=C(C1)Nc1ccccc1SC2c1ccc(F)cc1 (centres unmarked)	-0.969
CCn1c(/C=N/c2nc3ccccc3n2C)nc2ccccc21	-4.66
O=C(OCCNC(=O)c1ccc2ccccc2n1)c1cccnc1	-3.97
Cc1cc(-c2csc(NC(=O)c3ccccc3C(F)(F)F)n2)c(C)n1Cc1ccccc1	16.7
O=C(NCCc1ccccc1)c1ccc(NCC2CCCO2)c([N+](=O)[O-])c1 (centres unmarked)	-68.9
CC(=O)c1cccc(NC(=O)CC2S/C(=N/N=C/c3ccccc3)NC2=O)c1 (centres unmarked)	0.15
Cc1ccc2[nH]c(=O)c3cc(C(=O)N(CCCOC(C)C)Cc4ccco4)sc3c2c1	-4.27
CCOC(=O)c1cnc(SCc2cccc3ccccc23)nc1N	-17.4
O=C(COc1ncnc2sccc12)N1CCN(S(=O)(=O)c2ccc(Cl)cc2)CC1	-15.4
COc1ccccc1C(=O)NC(=O)COC(=O)Cc1ccc(F)cc1	9.62
Cc1cc(C(=O)N(C)CC(=O)Nc2cccc(F)c2)no1	14
CCC1CCCCN1C(=O)Cn1c(C(=O)OC)cc2ccsc21 (centres unmarked)	-0.484
NC(=O)Cn1cc(C(=O)c2ccccc2)c2ccccc21	8.54
Cc1ccc(/C=N/NC(=S)N2CCOCC2)cc1	2.28
CCOC(=O)N1CCN(CC(O)c2c[nH]c3ccccc23)CC1 (centres unmarked)	15.6
CCS(=O)(=O)Nc1ccc(C2=NN(S(=O)(=O)CC)C(c3cccs3)C2)cc1 (centres unmarked)	-9.32
COCCNC(=O)CN(C(=O)CCC(=O)Nc1ccccn1)c1ccc(C)c(C)c1	16
CC(C)CC(=O)n1sc(NC(=O)c2ccccc2)nc1=O	3.03
Cc1ccccc1Cn1cnc2c(cnn2C(C)(C)C)c1=O	-9.6

Structure (SMILES)	hERG current change (%, negative = inhibition) at 10uM [%]
O=S(=O)(NCC(c1cccnc1)N1CCN(c2ccc(F)cc2)CC1)c1ccccc1 (centres unmarked)	-53.2
CCc1cc(=O)oc2c(C)c(OCC(=O)N3CCCc4ccccc43)ccc12	-11.2
O=C(NCCCN1CCOCC1)C1COc2ccccc2O1 (centres unmarked)	33.4
COc1ccc(C(=O)C2CCCN(S(=O)(=O)c3ccc(C(C)=O)cc3)C2)c(C)c1 (centres unmarked)	-11
O=C(/C=C/c1ccc2c(c1)OCO2)NCc1ccncc1	9.85
O=C(CCN1C(=O)[C@@H]2Cc3ccccc3CN2C1=O)N[C@@H](Cc1ccccc1)C(=O)O	8.75
C[C@]12CC[C@@H]3c4ccc(O)cc4C(=O)C[C@H]3[C@@H]1CC[C@@H]2O	-52.7
CC(C)(C)C(=O)c1cnc(Nc2ccccc2)s1	-3.28
COc1ccc(-c2nc(S(=O)(=O)c3ccc(C)cc3)c(N3CCCC3)o2)cc1	17.2
O=C(CSc1nnc2c(n1)[nH]c1ccc(S(=O)(=O)N3CCOCC3)cc12)Nc1ccc(F)c(F)c1	-10.5
O=C(O)c1cc(-c2ccco2)nc2ccccc12	18.4
O=C(Nc1ccc2nsnc2c1)N1CCCCC1	22.2
Cc1ccnc2nc(C(=O)Nc3cc(Cl)ccc3N3CCOCC3)nn12	-10.3
CC(C)NC(=O)COC(=O)c1ccc(O)cc1	4.9
CCc1nc(SCC(=O)NCC2CCCO2)c2c(=O)n(C)c(=O)n(C)c2n1 (centres unmarked)	4.55
CCOC(=O)CC(=O)CSc1ncnc2c1nnn2-c1ccccc1	20.3
CC(C)OC(=O)c1cccc(C(=O)O)n1	9.43
CCOc1ccc(-n2c(SCC(=O)Nc3cc(C)on3)nc3c([nH]c4ccccc43)c2=O)cc1	-4.25
COc1cccc(Nc2ncnc3nc[nH]c23)c1	-1.1
CC(C)(C)NC(=O)NC(=O)COC(=O)Cn1c(C(F)(F)F)nc2ccccc21	20.9
O=C(c1ccc(N2CCCCC2)c([N+](=O)[O-])c1)N1CCC2(CC1)OCCO2	-40
CCc1ccc(NC(=O)C(=O)NNC(=O)c2ccc(OC)cc2)cc1	5.66
CCN(CC)S(=O)(=O)c1cc(NC(=O)CNc2cccc(S(=O)(=O)N3CCOCC3)c2)ccc1C	7.17

Structure (SMILES)	hERG current change (%, negative = inhibition) at 10uM [%]
Cc1nc2cc(Nc3nnc(-c4ccccc4)c4ccccc34)ccc2n1C	-67.2
CCOC(=O)c1sc(NC(=O)c2ccc(Br)o2)cc1C	-6.02
CCOc1ccc(NC(=O)CN2CCc3cc4c(cc3C2)OCCCO4)cc1OCC	-4.56
Cc1onc(C(=O)NC2CCCCC2)c1[N+](=O)[O-]	-23.2
COc1ccccc1N=Nc1c(C)[nH][nH]c1=O	-3.66
S=C(NCc1cccnc1)Nc1ccc(Cl)cc1	-10.8
Cn1cc(SCC(=O)NC2CCCC2)c2ccccc21	1.6
CCSc1ccccc1C(=O)N1CCN(c2ccc([N+](=O)[O-])cc2)CC1	-79.4
O=C(c1ccccc1-n1cccn1)N1CCc2c([nH]c3ccccc23)C1c1ccccn1 (centres unmarked)	-5.95
O=C(COc1ccc(Br)cc1F)NC1CCN(Cc2ccccc2)CC1	-74
O=c1[nH]c2ccccc2nc1/C=C/c1ccc(Cl)cc1	18.6
O=C(c1cccs1)n1nc(-c2ccc(Cl)cc2)nc1NCc1ccco1	0.741
Cc1ccc(-c2c(C(=O)Nc3ccccc3C)c(C)[nH]c(=S)c2C#N)o1	16.1
CCCCNC(=O)Cc1c(OC)ccc2cc(Br)ccc12	13.4
Cc1ccc(-c2nn3c(C)nnc3s2)cc1NCc1c(F)cccc1Cl	2.39
COCC1CCN(C(=O)C2CCC(=O)N(CCc3ccc(Cl)cc3)C2)CC1 (centres unmarked)	-19.6
O=C(O)CCNS(=O)(=O)c1ccccc1Br	8.88
COc1ccc(NC(=O)Cc2ccsc2)cc1S(=O)(=O)N1CCOCC1	-1.04
O=C(COC(=O)c1cccc([N+](=O)[O-])c1)NCc1ccc2c(c1)OCO2	9.38
COC(=O)CCC(=O)Nc1cc(OC)c(OC)cc1Cc1nccc2cc(OC)c(OC)cc12	12
